Measured values: the supplement of paper PMC7726561
Over roughly 1,100 sequences, “thermal melting temperature (Tm) of peptide-HLA complex” has its median near 58; the lowest 2% begin near 42. The list shows a part of the results.
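Further: cell lysates heated 10 min at 37–73 °C, remaining pHLA pulled down with pan-class I antibody, peptides quantified by DIA-MS versus 37 °C, Tm where half the complex is lost.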

The sequences below were run against HLA-A*02:01 (assay: thermal melting temperature (Tm) of peptide-HLA complex; higher = more thermostable pHLA complex). Settings: C1R-A*02:01.
With RLFSSIVTV the thermal melting temperature was 63.8 °C. For SQLDISDPYKV, the thermal melting temperature was 55.4 °C. FLLGPRLVLA showed a thermal melting temperature of 58.6 °C. Sequence ALNIATHVL has a thermal melting temperature of 54 °C. GLHGWAFTL was tested, and the thermal melting temperature was 57 °C. With RVLPPSALQSV the thermal melting temperature was 63.4 °C. For ILDEAIYKV, the thermal melting temperature was 61.4 °C. In the case of NLYEEWTQV, the thermal melting temperature is reported as 59.9 °C. NMVAKVDEV gave a thermal melting temperature of 55.1 °C. RLGEAEGLMKV gave a thermal melting temperature of 56.4 °C. For QLIDKVWQL, the thermal melting temperature was 64.6 °C. For GQSELASRLTL, the thermal melting temperature was 55 °C. Work on SLIKQIPRI yielded a thermal melting temperature of 56.5 °C. GLTSTDLLFHL showed a thermal melting temperature of 60.9 °C. NIVEKLREV gave a thermal melting temperature of 57.9 °C. Sequence ALVQDLAKA has a thermal melting temperature of 64.6 °C. GLLRDEALAEV gave a thermal melting temperature of 64.5 °C. With GLDIEGVKTV the thermal melting temperature was 53.6 °C. ALMDEVVKA gave a thermal melting temperature of 59.6 °C. RLIDLPGTEL was tested, and the thermal melting temperature was 55.6 °C. For KLFPDTPLAL, the thermal melting temperature was 47.6 °C. LMDHTIPEV gave a thermal melting temperature of 60.3 °C. RLFNDPVAMV gave a thermal melting temperature of 58 °C. With GLFPTSHSV the thermal melting temperature was 58.9 °C. Work on ALSSSSIRV yielded a thermal melting temperature of 44.3 °C. With YLSKIIPAL the thermal melting temperature was 63.8 °C. Work on GMDRYLIYV yielded a thermal melting temperature of 60.9 °C. In the case of QLMPLPVKV, the thermal melting temperature is reported as 53.2 °C. For ATDPTIHTV, the thermal melting temperature was 47.1 °C. SLLQTLYKV was tested, and the thermal melting temperature was 63.6 °C. Sequence AATEIVERV has a thermal melting temperature of 53.2 °C. With GLLSIFTKV the thermal melting temperature was 59.5 °C. QLSPRLLEV was tested, and the thermal melting temperature was 59.4 °C. NLYPFVKTV showed a thermal melting temperature of 59.3 °C. In the case of GIMKKAYEL, the thermal melting temperature is reported as 59.4 °C. GLLDNPELRV was tested, and the thermal melting temperature was 56.3 °C. FLFEPVVKA was tested, and the thermal melting temperature was 61.5 °C. Sequence LLVDVEPKV has a thermal melting temperature of 55.5 °C. In the case of KLNPQQFEV, the thermal melting temperature is reported as 61.7 °C. Work on SVYSRVIQV yielded a thermal melting temperature of 57.1 °C. With KVLGIVVGV the thermal melting temperature was 61 °C. ALADGVQKV showed a thermal melting temperature of 63 °C. NLLPKLHIV showed a thermal melting temperature of 61.2 °C. HLIEPLANA showed a thermal melting temperature of 58.4 °C. Sequence YMAELIERL has a thermal melting temperature of 59.1 °C. For QLLSEITRV, the thermal melting temperature was 59.3 °C. For SLSQHNDFL, the thermal melting temperature was 56.1 °C. For GLDVDGIYRV, the thermal melting temperature was 54.8 °C. SLYSQVHQI was tested, and the thermal melting temperature was 60.2 °C. For SLYDQAEKLVS, the thermal melting temperature was 58.7 °C. ALAAPDIVPAL showed a thermal melting temperature of 59.8 °C. TLDDKKVYL gave a thermal melting temperature of 55.6 °C. GLSTEGIYRV was tested, and the thermal melting temperature was 60.9 °C. Sequence ILYPKTLFLL has a thermal melting temperature of 61.9 °C. For HLDVQPAAL, the thermal melting temperature was 49.2 °C. In the case of YLGDVSERV, the thermal melting temperature is reported as 59.1 °C.
